Measurements published in the supplement of paper PMC8728848.
The other results are listed elsewhere or left out.

Legend:
Test in all cases: glycan array binding signal (z-score within array); higher = stronger binding
Settings in all cases: glycan notation: IUPAC condensed, linker removed
[1] = biological target: GlcNAc(b1-4)[GlcNAc(b1-6)]GalNAc
In short: (§1)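 Negative Z-scores can be read as non-binding. The Z-score is calculated within each array and then averaged across arrays of one protein sequence at different concentrations or buffers and across linkers. Arrays, 3228 in all, were curated from the Consortium for Functional Glycomics database and kept only where the protein sequence was available.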

[2] = biological target: GlcNAc(b1-6)Gal(b1-4)GlcNAc
In short: as §1

GlcNAc(b1-6)GalNAc = biological target: GlcNAc(b1-6)GalNAc
In short: as §1

Kdn(a2-3)Gal(b1-3)GlcNAc = biological target: Kdn(a2-3)Gal(b1-3)GlcNAc
In short: as §1

Kdn(a2-3)Gal(b1-4)GlcNAc = biological target: Kdn(a2-3)Gal(b1-4)GlcNAc
In short: as §1

[3] = biological target: Man(a1-2)Man(a1-2)Man(a1-3)Man
In short: as §1

[4] = biological target: Man(a1-2)Man(a1-2)Man(a1-3)[Man(a1-2)Man(a1-3)[Man(a1-2)Man(a1-6)]Man(a1-6)]Man(b1-4)GlcNAc(b1-4)GlcNAc
In short: as §1

[5] = biological target: Man(a1-2)Man(a1-2)Man(a1-3)[Man(a1-2)Man(a1-6)[Man(a1-3)]Man(a1-6)]Man(b1-4)GlcNAc(b1-4)GlcNAc
In short: as §1

[6] = biological target: Man(a1-2)Man(a1-2)Man(a1-6)[Man(a1-3)]Man
In short: as §1

Man(a1-2)Man(a1-3)Man = biological target: Man(a1-2)Man(a1-3)Man
In short: as §1

[7] = biological target: Man(a1-2)Man(a1-3)[Man(a1-2)Man(a1-6)]Man
In short: as §1

[8] = biological target: Man(a1-2)Man(a1-3)[Man(a1-3)[Man(a1-6)]Man(a1-6)]Man(b1-4)GlcNAc(b1-4)GlcNAc
In short: as §1

[9] = biological target: Man(a1-2)Man(a1-3)[Man(a1-6)]Man(a1-6)[Man(a1-2)Man(a1-3)]Man(b1-4)GlcNAc(b1-4)GlcNAc
In short: as §1

Man(a1-3)[Man(a1-6)]Man = biological target: Man(a1-3)[Man(a1-6)]Man
In short: as §1

[10] = biological target: Man(a1-3)[Man(a1-6)]Man(a1-6)[Man(a1-3)]Man(b1-4)GlcNAc(b1-4)GlcNAc
In short: as §1

[11] = biological target: Man(a1-3)[Man(a1-6)]Man(b1-4)GlcNAc(b1-4)GlcNAc
In short: as §1

Man(b1-4)GlcNAc = biological target: Man(b1-4)GlcNAc
In short: as §1

Neu5Ac(a2-3)Gal = biological target: Neu5Ac(a2-3)Gal
In short: as §1

[12] = biological target: Neu5Ac(a2-3)Gal(b1-3)GalNAc
In short: as §1

[13] = biological target: Neu5Ac(a2-3)Gal(b1-3)GalNAc(b1-3)Gal(a1-4)Gal(b1-4)Glc
In short: as §1

[14] = biological target: Neu5Ac(a2-3)Gal(b1-3)GalNAc(b1-4)[Neu5Ac(a2-3)]Gal(b1-4)Glc
In short: as §1

[15] = biological target: Neu5Ac(a2-3)Gal(b1-3)GalNAc6S
In short: as §1

[16] = biological target: Neu5Ac(a2-3)Gal(b1-3)GlcNAc
In short: as §1

[17] = biological target: Neu5Ac(a2-3)Gal(b1-3)GlcNAc(b1-3)Gal(b1-4)GlcNAc
In short: as §1

[18] = biological target: Neu5Ac(a2-3)Gal(b1-3)GlcNAc6S
In short: as §1

[19] = biological target: Neu5Ac(a2-3)Gal(b1-3)[Fuc(a1-4)]GlcNAc
In short: as §1

[20] = biological target: Neu5Ac(a2-3)Gal(b1-3)[Fuc(a1-4)]GlcNAc(b1-3)Gal(b1-4)[Fuc(a1-3)]GlcNAc
In short: as §1

[21] = biological target: Neu5Ac(a2-3)Gal(b1-3)[Neu5Ac(a2-3)Gal(b1-4)]GlcNAc
In short: as §1

[22] = biological target: Neu5Ac(a2-3)Gal(b1-3)[Neu5Ac(a2-6)]GalNAc
In short: as §1

Neu5Ac(a2-3)Gal(b1-4)Glc = biological target: Neu5Ac(a2-3)Gal(b1-4)Glc
In short: as §1

[23] = biological target: Neu5Ac(a2-3)Gal(b1-4)GlcNAc
In short: as §1

[24] = biological target: Neu5Ac(a2-3)Gal(b1-4)GlcNAc(b1-3)Gal(b1-4)GlcNAc
In short: as §1

[25] = biological target: Neu5Ac(a2-3)Gal(b1-4)GlcNAc(b1-3)Gal(b1-4)GlcNAc(b1-3)Gal(b1-4)GlcNAc
In short: as §1

[26] = biological target: Neu5Ac(a2-3)Gal(b1-4)GlcNAc(b1-3)Gal(b1-4)[Fuc(a1-3)]GlcNAc
In short: as §1

B1: HMGB1 (Rattus norvegicus), P63159 (protein)
chain: MGKGDPKKPRGKMSSYAFFVQTCREEHKKKHPDASVNFSEFSKKCSERWKTMSAKEKGKFEDMAKADKARYEREMKTYIPPKGETKKKFKDPNAPKRPPSAFFLFCSEYRPKIKGEHPGLSIGDVAKKLGEMWNNTAADDKQPYEKKAAKLKEKYEKDIAAYRAKGKPDAAKKGVVKAEKSKKKKEEEDDEEDEEDEEEEEEEEDEDEEEDDDDE
[1]
  glycan array binding signal (z-score): -0.541
[2]
  glycan array binding signal (z-score): 2.57
GlcNAc(b1-6)GalNAc
  glycan array binding signal (z-score): -0.344
Kdn(a2-3)Gal(b1-3)GlcNAc
  glycan array binding signal (z-score): -0.575
Kdn(a2-3)Gal(b1-4)GlcNAc
  glycan array binding signal (z-score): -0.401
[3]
  glycan array binding signal (z-score): -0.58
[4]
  glycan array binding signal (z-score): -0.287
[5]
  glycan array binding signal (z-score): -0.147
[6]
  glycan array binding signal (z-score): 1.1
Man(a1-2)Man(a1-3)Man
  glycan array binding signal (z-score): 0.018
[7]
  glycan array binding signal (z-score): -0.492
[8]
  glycan array binding signal (z-score): 0.289
[9]
  glycan array binding signal (z-score): -0.111
Man(a1-3)[Man(a1-6)]Man
  glycan array binding signal (z-score): -0.131
[10]
  glycan array binding signal (z-score): -0.07
[11]
  glycan array binding signal (z-score): -0.322
Man(b1-4)GlcNAc
  glycan array binding signal (z-score): -0.316
Neu5Ac(a2-3)Gal
  glycan array binding signal (z-score): -0.347
[12]
  glycan array binding signal (z-score): 1.07
[13]
  glycan array binding signal (z-score): -0.21
[14]
  glycan array binding signal (z-score): 0.326
[15]
  glycan array binding signal (z-score): 0.91
[16]
  glycan array binding signal (z-score): 1.87
[17]
  glycan array binding signal (z-score): -0.279
[18]
  glycan array binding signal (z-score): -0.541
[19]
  glycan array binding signal (z-score): -0.164
[20]
  glycan array binding signal (z-score): -0.002
[21]
  glycan array binding signal (z-score): 0.147
[22]
  glycan array binding signal (z-score): 0.013
Neu5Ac(a2-3)Gal(b1-4)Glc
  glycan array binding signal (z-score): -0.38
[23]
  glycan array binding signal (z-score): 1
[24]
  glycan array binding signal (z-score): -0.57
[25]
  glycan array binding signal (z-score): -0.169
[26]
  glycan array binding signal (z-score): 2.06
